From the supplement of paper PMC10126150
Values marked as one replicate rest on one cluster of the flow cell; about a third of the high ones do not repeat.

Test system: ATP
Assay: switch fluorescence ratio, 500 uM ATP over buffer (Cy3 cluster intensity, sum of 5 cycles each) (fold (ratio)); higher = stronger signal-on switching upon ATP binding; sequences stand for … in TCGTCGGCAGCGTCAGATGTGTATAAGAGACAGTTTTTTTTTTTTTTTTTTTTTTTTT…TC
Details: aptamer strand: ATP DNA aptamer (quencher-CACCTGGGGGAGTATTGCGGAGGAAGG + anchor), 100 nM annealed; ATP concentration: 500 uM; one replicate
Method in brief: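 The fluorescence ratio divides summed target-cycle Cy3 intensity by summed buffer-cycle Cy3 intensity for each cluster and is averaged per switch-domain sequence. Cy3-labelled switching-strand clusters on a modified Illumina MiSeq flow-cell were annealed to 100 nM quencher-labelled ATP aptamer, then imaged in selection buffer and again after 15 min with 500 uM ATP at 22 °C. Five such cycles were run, with NaOH stripping and re-annealing between them, and clusters outside 100-1000 RFU were excluded.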
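Also: ATP exposure 15 min at 22 °C before imaging.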

Sequence	switch fluorescence ratio
AGGGCCGTTT	1.05
GGTCTTGTCA	1.01
CTAATTCCA	0.964
GGCTTGTACT	1.01
TAATCGG	0.986
CAGTGGGCTG	1.05
AGATGCGCTC	1.01
CAGTATTGCC	0.975
TTGTCGTTTG	0.976
TTTATACGG	0.99
CTCCCCCCG	2.71
CGGCATGCTC	1.25
TTAGAGTA	1.03
GGGTTGCCCG	0.956
TGGAATGCAA	1.09
GGGTCCA	0.997
TCAAGTTTCG	0.932
ACAGGTGGAT	1.46
GTTTCCTGGA	0.978
ACAGCGCGGA	1.02
ATCTCTTAGA	0.977
ACGTAGACTT	1.29
AACCGGTCTT	0.976
AATTCATCAG	0.977
TCAATATTTG	0.985
CTGGTTGCCC	0.994

Sequence	switch fluorescence ratio
TATAACGTG	0.993
AATCGGACTA	0.94
GGGCCGATGG	1.05
CGCCGATTGC	1.43
GAGCTGAAAG	1
GCTCACAATT	1.07
CGGTTGCCAA	1.06
TTCCATAGTC	1.01
GAGCTGACCT	1.18
TTGGTCCCTA	1.01
TCCCAATGGT	1.12
TCAGGTCGTC	1.03
CGTTTAATT	0.996
CTGAATTTTT	1.06
TCGTACCGCA	2.01
TGAAGGCGAA	1.1
TTCAGTCAGG	0.996
ACGGACACAG	1.1
ATATGTCCGT	0.994
CATCCTTATT	1.14
TATATGTATT	1
CTTGACGCAT	1.89
CTTTATGGA	0.981
TCCCTTGAGG	0.995
GATCTTTACT	1.09
AAGGCCTTGC	1.05

Sequence	switch fluorescence ratio
TGTTACACTG	1.04
TTGGCTGCTG	0.974
TTAAGGCTT	0.962
TGTTTTACAT	0.98
GCGCCATTTT	1.01
CGGGACCT	1.23
CCCAGCAGGA	1.24
AAGTTTCCCT	0.994
GAATGAGGCG	0.974
CTTTATGTAG	1.01
GCTGCGTGGC	1.03
TATATCGGGA	1.01
TTAAGAACTC	1.07
TCTTTGAAAT	0.968
TGGACAGTGC	1
CGAGAGGCGC	1.04
ATACATTGTG	0.991
TGAATCTTGT	0.967
ATAGTAGCGG	1.04
AAACTAGCCG	0.885
CACGCCAAAT	1.17
AACAAAATC	0.995
TTACTGATTG	1.3
TCCGTAGATT	1.39
TAGTAAGATG	0.991
GGTGAGGTAC	1.03

Sequence	switch fluorescence ratio
AAAACCGCTT	1.19
TCTGAACCAC	1.19
GTGTTACCAG	1.05
CGCCCATCGA	0.952
CCAATGGGGT	1.04
GCTGGGCAAA	0.968
TTTGTAGTAA	3.74
TCGAAACTAG	0.989
TTCTATATCG	0.945
GAGGCGAAGG	0.994
GGCGTTTATT	1.02
GAGATTCTTT	0.985
AAGCGAAGCT	0.973
TGATGTGCCC	1.01
CAAGAAAC	0.993
GTTGGTAGCG	0.955
AGTAGACGTT	1.04
AATCTAGTAA	1.03
AATGGTGCT	1.01
CTTTGGCACG	0.991
GGTATAAACG	1.01
TGGGCGCTGG	0.968
TTCAAGTATT	1.03
TCCATTATGG	0.977
ATCATATACA	1.06
TAAGCGGTCT	0.93

Sequence	switch fluorescence ratio
GCAGGGAGTA	0.952
AAAGCTGCTG	1.03
GGATACCCGA	1.04
ACGTGGAGGG	1.01
GGGTGTATTA	0.992
ACCTTGGGTG	1.18
CGCTCCTTCG	1.43
TGTGCTACGG	1.01
GTCGGAGTGT	0.976
CATTGTGATT	1.04
GAATCTTCAT	1.01
TCCAGGGGA	1.09
CTGAAGAAA	1.07
ACGTTAGTAA	1.01
CTCAGGCAAG	1.61
CTGGATATAG	1.02
TTGCTACTT	0.978
CATGTAGTCA	1.01
TACGGTGGA	1.01
ATGAACGACT	0.985
GGAATAATGG	1.03
ATATGCGGCC	0.997
AAGTTCTTAG	0.969
CGCTTTAAGG	1.03
CACTTTCCAG	1.06
TCTTAATAAT	0.99

Sequence	switch fluorescence ratio
TACCACGTT	1.04
CCTGGTAGGT	0.993
TTACGTTATA	1.21
CTCACTACGT	1.05
TAAACAACCT	2.03
ACTAGGACGG	1.02
CGAGGGGTGG	0.994
TGCGCTCATG	1.03
TAGGGCAGTT	0.981
TTGTTCTTTA	1.02
TACATCTTAA	1.01
GCGGATGGTC	1.01
CGATGGAGCA	1.02
TGGGACTTGC	0.967
TGTCTTAACA	1
ACAGATTCCA	1.04
TCTCTAGTTG	1.02
CTAAGTTTGC	0.968
ATGGTAGTTA	0.981
ATGCCAGATC	1.04
TTGCAGATCC	0.989
CACCTACATT	1.13
AAGAATGT	1.06
TTAATGCTTG	0.984
AAACAAAAGG	0.985
AATAAAAGTG	1.09

Sequence	switch fluorescence ratio
GCAAAAGGGT	1.03
TGTGGCTTTG	0.963
AGTGTGTAAG	0.993
TATTGGTGTC	1.01
AAACCTTTCG	2.27
GCGTTAGGTC	1.08
GTGGACACCG	0.927
ACTGTTTGAT	1.02
TTCAAGATTC	1
TGCACGGCGT	0.985
CAGTTTTTT	1
GGAGGGCTGA	0.949
GCGACATTTC	1.02
TAATTGTGGC	0.929
GCAGCTAAC	2.73
GTGGTGTCGG	0.995
TTTCAGCATT	1.05
CTAAACTGCT	1
GTCCGTTAAC	2.01
CTGTGACTCT	1.03
TTGAAAGGAA	0.976
TGCTGGAGCC	0.987
AGGTGCGTCA	0.983
GAGGTAGGTA	1.01
GCCAAGGGGC	1.04
GGAGCTGTCT	0.989

Sequence	switch fluorescence ratio
CAAAGCGGTG	1.03
GGCTGTAGGG	1.03
TCTGGCTACT	1.08
GCCGAGACGA	1.08
ACATCCTTCA	1.6
ACTAGAAGTG	1.01
CGGATGGTAC	1.12
AAAGGTTTCA	1.01
GCCTATACA	1.05
AGCTTATCGT	0.952
GCATAACTAT	1.07
ATAGGGGAGA	1.01
TCACTAGAGG	1.04
TATTGAAACC	1.03
GAGGCCTGTA	0.978
CTGGTGTCTA	1.02
TACGCCTACT	1.32
GTCCAATTAG	1.03
CAAGAGTGCG	1.02
